Assay results published in the supplement of paper PMC4166925.
± gives the standard deviation of the averaged measurements. The full ranking holds about 33,000 sequences; the median of “E-score (dimensionless, -0.5 to 0.5)” is about -0.049, and the highest 2% start at about 0.37. Some of the results follow.

The sequences below were run on T1, PmTbr T-box DNA-binding domain (GST fusion) (assay: PBM E-score of 8-mer (E-score (dimensionless, -0.5 to 0.5)); Tbr is Tbrain of the sea star Patiria miniata (Pm) or the sea urchin Strongylocentrotus purpuratus (Sp); higher = stronger binding preference; most listed sequences are background and not binding sites). Conditions: the construct has about 5 more residues each side.
T1 sequence: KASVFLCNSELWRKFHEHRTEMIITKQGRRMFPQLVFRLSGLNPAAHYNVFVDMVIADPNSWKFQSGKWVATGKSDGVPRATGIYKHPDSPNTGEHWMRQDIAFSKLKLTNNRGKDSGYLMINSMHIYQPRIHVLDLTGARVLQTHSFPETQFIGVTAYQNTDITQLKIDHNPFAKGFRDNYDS
Method in brief: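 Primer extension turned Universal Agilent oligonucleotide arrays double-stranded. They were incubated with 200 nM protein in PBS (pH 7.5); the protein was a GST-fused Tbr T-box DNA-binding domain expressed in BL21 E. coli at 20 °C and purified on glutathione. Every ungapped 8-mer was scored from the scanned, quantified probe intensities, and the Universal PBM Analysis Suite gave each an enrichment E-score averaged over duplicate arrays.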

Sequence | PBM E-score of 8-mer
ACTCCGGC | 0.0353 ± 0.087
GATGCTAA | 0.0342 ± 0.0048
ATCGTAGC | -0.0594 ± 0.0091
GACAACTA | 0.11 ± 0.0063
ACGAGCCT | -0.163 ± 0.091
CTACCCTC | 0.0124 ± 0.021
ACCAGCAA | 0.0382 ± 0.0024
AGCTAGAC | -0.0397 ± 0.12
CGTAGGCC | -0.213 ± 0.033
GCCCTCGA | -0.187 ± 0.008
AGCGTATC | -0.202 ± 0.078
GATTGGCA | 0.103 ± 0.051
TCAATCCA | -0.0657 ± 0.0029
GCACCCAA | 0.193 ± 0.016
ATGGGTTG | -0.0958 ± 0.096
CTAAGCAG | -0.0891 ± 0.046
GTCATGTA | -0.1 ± 0.016
GCGATCAA | 0.0305 ± 0.063
ATGAGATA | 0.0769 ± 0.017
CCGGTCCG | -0.305 ± 0.046
CCCGTCTC | -0.214 ± 0.044
TCCGAGGA | -0.288 ± 0.022

Sequence | PBM E-score of 8-mer
GGACTTAC | -0.069 ± 0.0061
AGGTCTAA | -0.177 ± 0.013
ACATGCCC | -0.167 ± 0.0097
ACAATCGC | 0.117 ± 0.028
CCCGTAGA | -0.301 ± 0.096
ACCACGGT | 0.0773 ± 0.036
CAAGTCCG | -0.0558 ± 0.036
AAATATGT | 0.0537 ± 0.055
AAAATACT | 0.0413 ± 0.0038
ATATTCAG | -0.174 ± 0.0075
CCCACCAG | -0.0593 ± 0.024
ATGAGTCA | -0.0747 ± 0.0029
AATCAGGG | -0.154 ± 0.011
ACGGGACG | -0.144 ± 0.026
GTCAGCGA | 0.00654 ± 0.068
ATGAATTG | -0.0244 ± 0.035
GCACCCCA | 0.242 ± 0.0042
TGTGAACA | 0.4216 ± 0.0014
CATCGTAC | -0.215 ± 0.015
GTCGACAC | 0.406 ± 0.013
TACGTAAA | -0.0722 ± 0.0095
GTGTTGGA | 0.382 ± 0.0051

Sequence | PBM E-score of 8-mer
CACCTTAA | 0.385 ± 0.011
CGGGTCAA | -0.062 ± 0.0025
CCAGCCCC | -0.243 ± 0.069
TGGTCAAA | -0.17 ± 0.067
AATTATGG | -0.0713 ± 0.041
CAATAGAC | -0.0365 ± 0.053
ATCCCTAC | -0.128 ± 0.0015
GAGAGGGA | -0.204 ± 0.02
AGGCCAAT | -0.158 ± 0.081
CCGTTAGG | -0.106 ± 0.029
AGCTAACA | 0.209 ± 0.033
ACATCCCA | 0.0661 ± 0.083
GACGCCCA | -0.014 ± 0.024
AACTAAGG | -0.119 ± 0.028
GGCTTTGA | -0.234 ± 0.011
CGACCCTC | -0.0904 ± 0.069
AAGGCGTG | 0.351 ± 0.019
GAGAAGCA | -0.244 ± 0.015
CTAATAAA | -0.154 ± 0.045
AGGCGAAC | -0.0499 ± 0.044
CAAGCTAG | -0.172 ± 0.039
CGCGACGA | 0.249 ± 0.052

Sequence | PBM E-score of 8-mer
AGGTCGCC | -0.0269 ± 0.014
AGAGTAGA | -0.24 ± 0.0091
CAAACACA | 0.088 ± 0.05
CACGTTCC | 0.17 ± 0.042
ATGAAGCG | -0.0388 ± 0.0032
ACCGGTTC | -0.117 ± 0.034
CATCTAGC | 0.055 ± 0.0032
TGGGTCAA | -0.264 ± 0.049
CTTTATTA | -0.182 ± 0.014
CATCCGCA | -0.0741 ± 0.05
CGACGACG | 0.196 ± 0.047
AAACTTAT | -0.179 ± 0.023
AGGCAAGA | -0.165 ± 0.023
ATCTCTTC | -0.152 ± 0.033
ACTCGCGC | 0.29 ± 0.014
CGAAAATA | 0.0936 ± 0.022
GAGAGTTA | -0.0418 ± 0.051
AGATCAGC | 0.107 ± 0.02
CCATTACC | -0.147 ± 0.0032
AATTTATG | 0.0198 ± 0.017
